# From PubChem BioAssay (NCATS)
# The inconclusive results got no clear call from the source; some entries with a clear call stand among them for comparison. For some of these results: A potency beside an inconclusive call is a rough fit, not a confirmed value. Activity calls are given as the source filed them. Unless noted, the call rests on the fitted dose curve; in most records, active means well fitted curve in the direction sought with a large enough effect; inconclusive means small, poorly fitted or top-dose-only effect, or another doubt; inactive means no such curve, though single readings can be large; an effect the other way counts as inactive or inconclusive.
# Experiments:
# [1] = target: Rap guanine nucleotide exchange factor 3 (Homo sapiens) (UniProt O95398); test: Confirmatory qHTS for agonist of cAMP-regulated guanine nucleotide exchange factor 3 (EPAC1) (AID 1645881); conditions: EPAC1 Rap1B BODIPY-GDP exchange fluorescence; activation: at 154 µM (top of the series), 100% = cAMP control response; further: potency means the concentration at half of the fitted maximal effect; nearly all actives have a fitted effect of over 75% in size
# Chain of UniProt O95398 (O95398 whole entry, looked up): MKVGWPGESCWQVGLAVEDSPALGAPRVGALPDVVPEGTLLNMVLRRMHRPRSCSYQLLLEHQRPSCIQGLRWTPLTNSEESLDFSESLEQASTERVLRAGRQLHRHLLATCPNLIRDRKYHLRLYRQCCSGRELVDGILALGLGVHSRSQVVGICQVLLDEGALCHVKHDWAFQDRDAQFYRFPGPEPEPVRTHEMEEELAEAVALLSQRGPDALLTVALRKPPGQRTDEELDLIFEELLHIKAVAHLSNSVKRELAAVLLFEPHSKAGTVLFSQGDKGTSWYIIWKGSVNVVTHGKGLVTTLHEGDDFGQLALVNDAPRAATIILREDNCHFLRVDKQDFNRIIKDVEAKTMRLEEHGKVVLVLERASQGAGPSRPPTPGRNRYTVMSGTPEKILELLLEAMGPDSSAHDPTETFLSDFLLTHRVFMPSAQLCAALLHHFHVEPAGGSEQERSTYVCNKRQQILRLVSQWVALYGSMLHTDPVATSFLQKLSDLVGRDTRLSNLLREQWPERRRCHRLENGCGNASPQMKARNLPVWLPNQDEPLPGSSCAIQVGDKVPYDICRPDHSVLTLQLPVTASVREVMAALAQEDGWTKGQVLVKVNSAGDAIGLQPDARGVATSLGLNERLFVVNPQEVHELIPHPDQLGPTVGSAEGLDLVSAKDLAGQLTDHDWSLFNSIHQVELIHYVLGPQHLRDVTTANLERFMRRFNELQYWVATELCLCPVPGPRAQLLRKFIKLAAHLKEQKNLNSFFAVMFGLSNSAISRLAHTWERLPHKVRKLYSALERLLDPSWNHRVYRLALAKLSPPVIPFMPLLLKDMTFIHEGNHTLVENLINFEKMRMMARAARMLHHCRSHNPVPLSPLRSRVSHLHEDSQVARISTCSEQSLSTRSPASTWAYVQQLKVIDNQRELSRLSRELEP
# [2] = target: Rap guanine nucleotide exchange factor 4 (Homo sapiens) (UniProt Q8WZA2); test: Confirmatory qHTS for agonist of cAMP-regulated guanine nucleotide exchange factor 4 (EPAC2) (AID 1645884);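 further: nucleotide exchange releases bodipy-GDP from Rap1 and this lowers its fluorescence; potency means the concentration at half of the fitted maximal effect; nearly all actives have a fitted effect of over 65% in size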
# Chain of UniProt Q8WZA2 (Q8WZA2 whole entry, looked up): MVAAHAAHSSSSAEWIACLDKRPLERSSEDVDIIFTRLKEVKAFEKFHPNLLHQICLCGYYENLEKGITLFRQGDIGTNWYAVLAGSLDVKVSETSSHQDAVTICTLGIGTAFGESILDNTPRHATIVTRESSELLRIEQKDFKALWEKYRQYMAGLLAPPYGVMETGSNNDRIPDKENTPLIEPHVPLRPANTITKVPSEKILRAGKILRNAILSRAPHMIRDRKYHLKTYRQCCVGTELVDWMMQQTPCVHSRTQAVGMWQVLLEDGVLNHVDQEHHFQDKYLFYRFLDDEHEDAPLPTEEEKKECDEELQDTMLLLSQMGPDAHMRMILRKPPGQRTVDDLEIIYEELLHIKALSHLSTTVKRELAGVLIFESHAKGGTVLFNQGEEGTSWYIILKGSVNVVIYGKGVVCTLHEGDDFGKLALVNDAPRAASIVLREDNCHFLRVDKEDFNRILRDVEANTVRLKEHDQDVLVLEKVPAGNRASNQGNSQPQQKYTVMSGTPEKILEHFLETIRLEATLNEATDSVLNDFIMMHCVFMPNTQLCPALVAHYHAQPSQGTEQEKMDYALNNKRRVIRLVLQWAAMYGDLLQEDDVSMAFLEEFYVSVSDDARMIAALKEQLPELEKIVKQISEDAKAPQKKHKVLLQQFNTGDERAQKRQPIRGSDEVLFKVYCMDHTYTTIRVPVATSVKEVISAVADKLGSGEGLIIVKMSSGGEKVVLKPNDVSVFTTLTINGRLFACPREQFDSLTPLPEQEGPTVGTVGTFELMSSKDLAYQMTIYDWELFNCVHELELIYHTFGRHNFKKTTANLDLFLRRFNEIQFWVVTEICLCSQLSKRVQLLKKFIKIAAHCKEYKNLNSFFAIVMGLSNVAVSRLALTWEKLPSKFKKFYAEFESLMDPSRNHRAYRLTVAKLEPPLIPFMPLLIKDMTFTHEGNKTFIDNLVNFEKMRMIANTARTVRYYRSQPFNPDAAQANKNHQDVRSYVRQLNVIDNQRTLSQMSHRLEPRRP
# [3] = target: Rap guanine nucleotide exchange factor 3 (Homo sapiens) (UniProt O95398); test: Counterscreen qHTS for agonist of cAMP-regulated guanine nucleotide exchange factor 3 (EPAC1) (AID 1645889); conditions: EPAC1 Rap1B-BODIPY-GDP exchange, fluorescence; activation: at 154 µM (top of the series) unless noted; further: nearly all actives have a fitted effect of over 40% in size; further: potency means the concentration at half of the fitted maximal effect; on activation: % of control where 0% means no effect
# Summary of the method: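 Rap1B–BODIPY-GDP (250 nM) with 50 uM GDP; compounds pin-transferred to 9.74 nM–152 uM final (activator) or from 7.32 nM upwards (inhibitor). Fluorescence Ex/Em 480/540 nm read at 5 and 30 min, then after adding cAMP or buffer, at room temperature.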
# [4] = NFAT Signaling Pathway (AID 444; active means well fitted curve in either direction with a large enough effect, not every such curve was filed as active; inconclusive means small, poorly fitted or top-dose-only effect, or another doubt;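 further: carbachol stimulus at about its EC50 of 1 µM final; on the % scale 0 is the no-effect control and ±100 the full control effect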); conditions: Jurkat NFAT-bla M1, carbachol, beta-lactamase ratio, 5 h; at 17.2 µM (top of the series) unless noted
# Summary of the method: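 Jurkat cells with NFAT-driven β-lactamase reporter and co-expressed M1 receptor, stimulated with carbachol (final 1 uM, ~EC50), compound titration, 5 h at 37 °C. CCF4 loaded 1 h at RT; 460/530 nm ratio gave %activity and AC50.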
# [5] = Stat Signaling Pathway (AID 446; active means well fitted curve in either direction with a large enough effect, not every such curve was filed as active; inconclusive means small, poorly fitted or top-dose-only effect, or another doubt;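 further: ME-180 cervical cancer cells given 40 pM IL-6 alongside compound; SIE-controlled beta-lactamase reporter measured as 460/530 nm FRET emission ratio; top concentration of the series differs between compounds; on the % scale 0 is the no-effect control and ±100 the full control effect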); conditions: ME-180 SIE beta-lactamase reporter, IL-6 stimulated, 5 h; at 7.69 µM (top of the series) unless noted
# Summary of the method: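 Screening format detects activators and inhibitors alike: ME-180 SIE-bla cells stimulated at 40 pM IL-6 for 5 hrs with compound, then dual-emission beta-lactamase read at 405 nm excitation.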
# [6] = qHTS Assay for Identification of Small Molecule Agonists for Hypoxia Response Element Signaling Pathway (AID 914; active means well fitted activation curve with a large enough effect in the signal ratio, with a control signal flat, not every such curve was filed as active; inconclusive means small, poorly fitted or top-dose-only effect, or effect the other way, or a change in a side signal; the % refers to the signal ratio; further: potency means the concentration at half of the fitted maximal effect); conditions: ME-180 HRE-bla reporter, beta-lactamase ratio, CoCl2, 17 h; activation: hits give high values
# Summary of the method: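 ME-180 cells carrying an HRE-driven beta-lactamase reporter were treated with compounds in a titration series plus an EC50 level of CoCl2 for 17 h at 37 degrees Celsius; CCF4 readout as the 460nm/530nm ratio gave AC50 values.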
# [7] = target: Tumor susceptibility gene 101 protein (Homo sapiens) (UniProt Q99816); test: qHTS Assay for Iinhibitors of HIV-1 Budding by Blocking the Interaction of PTAP/TSG101: Hit Validation (AID 651600); further: potency means the concentration at half of the fitted maximal effect; nearly all actives have a fitted effect of over 70% in size
# Chain of UniProt Q99816 (Q99816 whole entry, looked up, the tested form may be a part): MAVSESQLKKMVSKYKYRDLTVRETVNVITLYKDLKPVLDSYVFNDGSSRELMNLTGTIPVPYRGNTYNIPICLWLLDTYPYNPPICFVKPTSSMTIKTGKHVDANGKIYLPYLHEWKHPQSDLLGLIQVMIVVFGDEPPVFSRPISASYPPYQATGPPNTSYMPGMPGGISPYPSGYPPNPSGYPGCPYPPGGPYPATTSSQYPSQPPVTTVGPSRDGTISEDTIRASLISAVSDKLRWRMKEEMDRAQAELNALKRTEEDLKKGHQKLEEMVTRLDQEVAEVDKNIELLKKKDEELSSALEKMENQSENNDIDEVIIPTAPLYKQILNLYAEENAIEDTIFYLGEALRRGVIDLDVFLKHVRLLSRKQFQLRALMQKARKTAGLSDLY
# Summary of the method: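 Fluorescence polarization binding assay: Tsg101 binding domain (10 uM final) pre-dispensed with compounds, then FITC-labeled PTAP-motif peptide (50 nM final) added; 20 min at r.t. in HEPES pH 7.5 buffer with NaCl, Tween 20, EDTA, TCEP.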
# Tags describe the fitted curve by direction and shape or compound fluorescence and quenching.
smiles,measurement,setting,value
COc1cc(OC)c(-c2c3cc(O)c(=O)cc-3oc3cc(O)c(O)cc23)cc1OC,Potency,[1],active: 89.1 µM
same,Potency,[2],active: 100 µM
same,Potency,[3],active: 70.8 µM
CC(=O)CCc1oc2c([N+](=O)[O-])cccc2c1-c1ccc(C)o1,Potency,[1],"inconclusive: 70.8 µM [activator, partial curve, poor fit]"
same,Potency,[2],"inconclusive: 56.2 µM [activator, partial curve, poor fit]"
same,activation,[3],inconclusive: 33.6% [activator]
CC1CC1c1ccc(/C=C(\C#N)C(=O)Nc2cc(Cl)ccc2Cl)o1 (configuration not stated),Potency,[1],"inconclusive: 141 µM [activator, single point]"
same,Potency,[2],"inconclusive: 89.1 µM [activator, partial curve, poor fit]"
same,Potency,[3],inactive
CCN(CC)c1ccc2cc(C(=O)Nc3ccccn3)c(=O)oc2c1,"activity change, negative = inhibition",[4],inconclusive: 47.8% [activator]
same,"activity, negative = inhibition",[5],inconclusive: 74.7% [activator] [at 17.2 µM]
same,Potency,[6],active: 3.98 µM
same,Potency,[1],"inconclusive: 141 µM [activator, partial curve, poor fit]"
same,Potency,[2],active: 100 µM
same,Potency,[3],inactive
O=C(OCCN1C(=O)c2cccc3c(N4CCOCC4)ccc(c23)C1=O)c1ccc(Cl)cc1Cl,Potency,[1],"inconclusive: 112 µM [activator, partial curve, poor fit]"
same,Potency,[2],"inconclusive: 2 µM [activator, full curve, poor fit]"
same,Potency,[3],"inconclusive: 1.12 µM [activator, full curve]"
CCCCn1c(=O)[nH]c2nc3cc(N)ccc3nc2c1=O,Potency,[7],active: 6.51 µM
same,Potency,[1],"inconclusive: 89.1 µM [activator, partial curve, poor fit]"
same,Potency,[2],"inconclusive: 6.31 µM [activator, single point]"
same,Potency,[3],active: 12.6 µM
